Some of the results follow.

Holding throughout (experiment): glycan array binding signal (z-score within array); higher = stronger binding
Conditions in all cases: glycan notation: IUPAC condensed, linker removed

Experiment [1] addresses Gal(b1-4)GlcNAc(b1-2)[Gal(b1-4)GlcNAc(b1-6)]Man(a1-6)[Gal(b1-4)GlcNAc(b1-2)Man(a1-3)]Man(b1-4)GlcNAc(b1-4)[Fuc(a1-6)]GlcNAc. The essentials:
(§1)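 The binding signal is a Z-score computed within each array and averaged over linkers. Arrays of the same protein sequence at different concentrations or buffers were also averaged together. Data originate from 3228 arrays in the Consortium for Functional Glycomics database, kept only where the protein sequence was available.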

Experiment [2] has as its target Gal(b1-4)GlcNAc(b1-2)[Gal(b1-4)GlcNAc(b1-6)]Man(a1-6)[GlcNAc(b1-4)][Gal(b1-4)GlcNAc(b1-2)Man(a1-3)]Man(b1-4)GlcNAc(b1-4)GlcNAc. The procedure, abridged: as §1
Experiment [3] has as its target Gal(b1-4)GlcNAc(b1-2)[Gal(b1-4)GlcNAc(b1-6)]Man(a1-6)[GlcNAc(b1-4)][Gal(b1-4)GlcNAc(b1-2)[Gal(b1-4)GlcNAc(b1-4)]Man(a1-3)]Man(b1-4)GlcNAc(b1-4)[Fuc(a1-6)]GlcNAc. The procedure, abridged:
as §1

In experiment [4] the target is Gal(b1-4)GlcNAc(b1-3)Gal(b1-3)GalNAc. The procedure, abridged: as §1
In experiment [5] the target is Gal(b1-4)GlcNAc(b1-3)Gal(b1-3)GlcNAc. The essentials:
as §1

Experiment [6] deals with Gal(b1-4)GlcNAc(b1-3)Gal(b1-4)Glc. The procedure, abridged:
as §1

Experiment [7] deals with Gal(b1-4)GlcNAc(b1-3)Gal(b1-4)GlcNAc. The procedure, abridged:
as §1

Experiment [8] has as its target Gal(b1-4)GlcNAc(b1-3)Gal(b1-4)GlcNAc(b1-2)Man(a1-3)[Gal(b1-4)GlcNAc(b1-3)Gal(b1-4)GlcNAc(b1-2)Man(a1-6)]Man(b1-4)GlcNAc(b1-4)GlcNAc. The essentials: as §1
The target of experiment [9] is Gal(b1-4)GlcNAc(b1-3)Gal(b1-4)GlcNAc(b1-2)Man(a1-3)[Gal(b1-4)GlcNAc(b1-3)Gal(b1-4)GlcNAc(b1-2)Man(a1-6)]Man(b1-4)GlcNAc(b1-4)[Fuc(a1-6)]GlcNAc. The essentials:
as §1

The target of experiment [10] is Gal(b1-4)GlcNAc(b1-3)Gal(b1-4)GlcNAc(b1-2)[Gal(b1-4)GlcNAc(b1-3)Gal(b1-4)GlcNAc(b1-6)]Man(a1-6)[Gal(b1-4)GlcNAc(b1-3)Gal(b1-4)GlcNAc(b1-2)Man(a1-3)]Man(b1-4)GlcNAc(b1-4)GlcNAc. The procedure, abridged:
as §1

For experiment [11], the target named is Gal(b1-4)GlcNAc(b1-3)Gal(b1-4)GlcNAc(b1-2)[Gal(b1-4)GlcNAc(b1-3)Gal(b1-4)GlcNAc(b1-6)]Man(a1-6)[Gal(b1-4)GlcNAc(b1-3)Gal(b1-4)GlcNAc(b1-2)Man(a1-3)]Man(b1-4)GlcNAc(b1-4)[Fuc(a1-6)]GlcNAc. The procedure, abridged: as §1
The target in experiment [12] is Gal(b1-4)GlcNAc(b1-3)Gal(b1-4)GlcNAc(b1-3)Gal(b1-4)GlcNAc. The essentials:
as §1

Experiment [13] addresses Gal(b1-4)GlcNAc(b1-3)Gal(b1-4)GlcNAc(b1-3)Gal(b1-4)GlcNAc(b1-2)Man(a1-3)[Gal(b1-4)GlcNAc(b1-3)Gal(b1-4)GlcNAc(b1-3)Gal(b1-4)GlcNAc(b1-2)Man(a1-6)]Man(b1-4)GlcNAc(b1-4)GlcNAc. The essentials:
as §1

Experiment [14] concerns the target Gal(b1-4)GlcNAc(b1-3)Gal(b1-4)GlcNAc(b1-3)Gal(b1-4)GlcNAc(b1-2)Man(a1-3)[Gal(b1-4)GlcNAc(b1-3)Gal(b1-4)GlcNAc(b1-3)Gal(b1-4)GlcNAc(b1-2)Man(a1-6)]Man(b1-4)GlcNAc(b1-4)[Fuc(a1-6)]GlcNAc. The essentials:
as §1

The target in experiment [15] is Gal(b1-4)GlcNAc(b1-3)Gal(b1-4)GlcNAc(b1-3)Gal(b1-4)GlcNAc(b1-2)[Gal(b1-4)GlcNAc(b1-3)Gal(b1-4)GlcNAc(b1-3)Gal(b1-4)GlcNAc(b1-6)]Man(a1-6)[Gal(b1-4)GlcNAc(b1-3)Gal(b1-4)GlcNAc(b1-3)Gal(b1-4)GlcNAc(b1-2)Man(a1-3)]Man(b1-4)GlcNAc(b1-4)[Fuc(a1-6)]GlcNAc. The essentials:
as §1

Experiment [16] deals with Gal(b1-4)GlcNAc(b1-3)Gal(b1-4)GlcNAc(b1-3)Gal(b1-4)GlcNAc(b1-3)Gal(b1-4)GlcNAc(b1-2)Man(a1-3)[Gal(b1-4)GlcNAc(b1-3)Gal(b1-4)GlcNAc(b1-3)Gal(b1-4)GlcNAc(b1-3)Gal(b1-4)GlcNAc(b1-2)Man(a1-6)]Man(b1-4)GlcNAc(b1-4)GlcNAc. The procedure, abridged: as §1
Experiment [17] addresses Gal(b1-4)GlcNAc(b1-3)Gal(b1-4)GlcNAc(b1-3)Gal(b1-4)GlcNAc(b1-3)Gal(b1-4)GlcNAc(b1-2)Man(a1-3)[Gal(b1-4)GlcNAc(b1-3)Gal(b1-4)GlcNAc(b1-3)Gal(b1-4)GlcNAc(b1-3)Gal(b1-4)GlcNAc(b1-2)Man(a1-6)]Man(b1-4)GlcNAc(b1-4)[Fuc(a1-6)]GlcNAc. The procedure, abridged:
as §1

The target in experiment [18] is Gal(b1-4)GlcNAc(b1-3)Gal(b1-4)GlcNAc(b1-3)Gal(b1-4)GlcNAc(b1-3)Gal(b1-4)GlcNAc(b1-2)[Gal(b1-4)GlcNAc(b1-3)Gal(b1-4)GlcNAc(b1-3)Gal(b1-4)GlcNAc(b1-3)Gal(b1-4)GlcNAc(b1-6)]Man(a1-6)[Gal(b1-4)GlcNAc(b1-3)Gal(b1-4)GlcNAc(b1-3)Gal(b1-4)GlcNAc(b1-3)Gal(b1-4)GlcNAc(b1-2)Man(a1-3)]Man(b1-4)GlcNAc(b1-4)[Fuc(a1-6)]GlcNAc. The essentials: as §1
Experiment [19] deals with Gal(b1-4)GlcNAc(b1-3)Gal(b1-4)GlcNAc(b1-3)Gal(b1-4)GlcNAc(b1-3)Gal(b1-4)GlcNAc(b1-3)Gal(b1-4)GlcNAc(b1-2)Man(a1-3)[Gal(b1-4)GlcNAc(b1-3)Gal(b1-4)GlcNAc(b1-3)Gal(b1-4)GlcNAc(b1-3)Gal(b1-4)GlcNAc(b1-3)Gal(b1-4)GlcNAc(b1-2)Man(a1-6)]Man(b1-4)GlcNAc(b1-4)GlcNAc. The procedure, abridged: as §1
Experiment [20] has as its target Gal(b1-4)GlcNAc(b1-3)Gal(b1-4)GlcNAc(b1-3)Gal(b1-4)GlcNAc(b1-3)Gal(b1-4)GlcNAc(b1-3)Gal(b1-4)GlcNAc(b1-2)Man(a1-3)[Gal(b1-4)GlcNAc(b1-3)Gal(b1-4)GlcNAc(b1-3)Gal(b1-4)GlcNAc(b1-3)Gal(b1-4)GlcNAc(b1-3)Gal(b1-4)GlcNAc(b1-2)Man(a1-6)]Man(b1-4)GlcNAc(b1-4)[Fuc(a1-6)]GlcNAc. The essentials:
as §1

For experiment [21], the target named is Gal(b1-4)GlcNAc(b1-3)Gal(b1-4)GlcNAc(b1-3)Gal(b1-4)GlcNAc(b1-3)Gal(b1-4)GlcNAc(b1-3)Gal(b1-4)GlcNAc(b1-2)[Gal(b1-4)GlcNAc(b1-3)Gal(b1-4)GlcNAc(b1-3)Gal(b1-4)GlcNAc(b1-3)Gal(b1-4)GlcNAc(b1-3)Gal(b1-4)GlcNAc(b1-6)]Man(a1-6)[Gal(b1-4)GlcNAc(b1-3)Gal(b1-4)GlcNAc(b1-3)Gal(b1-4)GlcNAc(b1-3)Gal(b1-4)GlcNAc(b1-3)Gal(b1-4)GlcNAc(b1-2)Man(a1-3)]Man(b1-4)GlcNAc(b1-4)[Fuc(a1-6)]GlcNAc. The essentials: as §1

In experiment [22] the target is Gal(b1-4)GlcNAc(b1-3)Gal(b1-4)GlcNAc(b1-3)Gal(b1-4)GlcNAc(b1-3)Gal(b1-4)GlcNAc(b1-3)Gal(b1-4)GlcNAc(b1-3)Gal(b1-4)GlcNAc(b1-2)Man(a1-3)[Gal(b1-4)GlcNAc(b1-3)Gal(b1-4)GlcNAc(b1-3)Gal(b1-4)GlcNAc(b1-3)Gal(b1-4)GlcNAc(b1-3)Gal(b1-4)GlcNAc(b1-3)Gal(b1-4)GlcNAc(b1-2)Man(a1-6)]Man(b1-4)GlcNAc(b1-4)GlcNAc. The essentials: as §1
Experiment [23] deals with Gal(b1-4)GlcNAc(b1-3)Gal(b1-4)GlcNAc(b1-3)GalNAc. The procedure, abridged: as §1

B1: CGL (Crenomytilus grayanus), H2FH31 (protein)
chain: MTTFLIKHKASGKFLHPYGGSSNPANNTKLVLHSDIHERMYFQFDVVDERWGYIKHVASGKIVHPYGGQANPPNETNMVLHQDRHDRALFAMDFFNDNIMHKGGKYIHPKGGSPNPPNNTETVIHGDKHAAMEFIFVSPKNKDKRVLVYA
For B1, the “glycan array binding signal (z-score)” value in experiment [1] was 2.02; in experiment [2], 0.034; in experiment [3], 0.462; in experiment [4], -0.223; in experiment [5] it was -0.363; in experiment [6], 0.039. The “glycan array binding signal (z-score)” value in experiment [7] came to 0.342; in experiment [8], 0.731; in experiment [9] it was 1.71; in [10], 0.666; in experiment [11], 2.65; in [12], 0.096. The “glycan array binding signal (z-score)” value in experiment [13] was determined as 1.16; in experiment [14] it was 2.72; in experiment [15], 3.3; in experiment [16], 2.73; in experiment [17], 2.79; in [18], 3.02. Further, the “glycan array binding signal (z-score)” value in [19] is 3.18; in experiment [20], 2.77; in experiment [21], 3.77; in experiment [22], 1.14; in experiment [23], -0.173.
